# In PubChem BioAssay AID1508623 (National Center for Advancing Translational Sciences (NCATS), 2021):
# Hit rate of the full screen: of about 48,000 compounds, about 450 (0.94%) were called active. About 19% were inconclusive and are not listed. The call rests on the fitted dose curve; in most records, active means well fitted inhibition curve with a large enough effect; inconclusive means small, poorly fitted or top-dose-only effect; inactive means no such curve, though single readings can be large or run the other way. This is one part of the list.
# Test: Primary qHTS for Identification of Small Molecule Inhibitors of Huntingtin Promoter Activity; further: nearly all actives have a fitted effect of over 50% in size
# Conditions: HEK293 HTT promoter firefly luciferase reporter (activity 0% = vehicle and -100% = no light), 24 h; series mostly up to 57.5 µM; activity change, negative = inhibition: at the top concentration
# Summary of the method: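 Firefly luciferase signal from promoter-reporter HEK293 cells was scaled between vehicle (0%) and zero RLU (-100%). Compounds were tested at final concentrations of up to 57.5 uM over 24 h at 37 degrees C. PTC124 at 50 uM final served as control inhibitor.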
row,SMILES,"activity change, negative = inhibition"
1,Cc1ccc(NC(=O)CSc2ncc3c(n2)-c2ccccc2N(Cc2cccc(F)c2)S3(=O)=O)cc1F,inactive: -24.8%
2,O=C1c2ccccc2C(=O)C1(c1ccccc1)N1CCN(c2cccc(Cl)c2)CC1,inactive: -20.2%
3,CC1CN(C(=O)Nc2ccc(C(=O)NCCc3ccccc3)cc2)c2ccccc2S1 (configuration not stated),inactive: -27.2%
4,CCOc1cc(-c2ccc(OC(=O)c3ccccc3F)cc2)cc(=O)c2c(C)oc(C)c12,inactive: 0.743%
5,Cc1cc(C)nc(NS(=O)(=O)c2ccc(NC(=O)COc3ccc(Cl)cc3C)cc2)n1,inactive: -15.3%
6,CCOc1ccc(C(=O)Nc2cc(-c3nc4ccccc4o3)ccc2C)cc1Cl,inactive: 19.7%
7,CCN(Cc1ccccc1)C(=O)c1c(C)oc2ncn(C)c(=O)c12,inactive: 0%
8,O=C(CSc1nccn1Cc1ccccc1)NCc1ccc(F)cc1,inactive: 1.97%
9,O=C(CCCCCCC(=O)Nc1ccccc1)NO,inactive
10,COc1ccc(-n2nc3ccc(NC(=O)c4ccc(-c5cc(Cl)ccc5Cl)o4)cc3n2)cc1,inactive: -0.841%
11,Clc1cccc(N2CCN(c3nc4ccccc4n4cnnc34)CC2)c1,inactive: 1.51%
12,COc1cccc(NC(=O)C2CCCN(S(=O)(=O)c3c(C)[nH]c(=O)[nH]c3=O)C2)c1 (configuration not stated),inactive: -15.1%
13,CCN(c1cc(C)cc(C)c1)S(=O)(=O)c1nnc(NC(=O)C2CCCCC2)s1,inactive: -3.2%
14,O=C(Nc1ccc(Br)c2cccnc12)c1cccc2ccccc12,inactive: -1.2%
15,Cc1cc(C)cc(NC(=O)CCC(=O)N2Cc3ccccc3Oc3ncccc32)c1,inactive: -20.9%
16,Cc1ccc(CCNC(=O)c2cc3sccc3n2Cc2ccc(C)cc2)cc1,inactive: -18.9%
17,CCCc1cnc2c(c1SCC(=O)N(C)c1ccccc1)c(=O)n(C)c(=O)n2C,inactive: -7.27%
18,Cc1c(Cl)ccc2sc(NC(=O)c3ccc(S(=O)(=O)N4CCCc5ccccc54)cc3)nc12,inactive: -16%
19,CCc1ccccc1NC(=O)c1nnn(-c2ccc(F)cc2)c1C,inactive: 36%
20,COc1cc2ccccc2cc1C(=O)Nc1ccc2oc(-c3ccc(F)cc3)nc2c1,inactive: 41%
21,Cc1cc(C)cc(-n2c(SCC(=O)N3CCCCC3)nc3c([nH]c4ccccc43)c2=O)c1,inactive: -18.5%
22,CCOc1ccc(NC(=O)Cn2c(=O)n(Cc3ccco3)c(=O)c3oc4ccccc4c32)cc1,inactive: -7.01%
23,Cc1cc(C)c(CSc2nnc(C)n3c2cc2occc23)c(C)c1,inactive: -12%
24,CCN(Cc1ccccc1)C(=O)c1nc(-c2cccc(F)c2)n2c1CCCCC2,inactive: -26.1%
25,COCCCNC(=O)C1CCCN(C(=O)c2cnn(-c3ccc(F)cc3)c2-n2cccc2)C1 (configuration not stated),inactive: -17.1%
26,Cc1ccc(SCc2nc(-c3ccc(C(=O)NCc4ccc(Cl)cc4)cc3)oc2C)cc1,inactive: 2.93%
27,O=C(NC1CCCCC1)c1cc(Nc2cccc(C(F)(F)F)c2)nc2ccccc12,inactive: -20.8%
